Some of these densities may be calculated back from excess volumes.
Assay: xn = mol fraction of the nth substance listed
Details: 100 kPa

CC[n+]1ccn(C)c1.F[B-](F)(F)F + CC(=O)c1ccccc1
x2 = 0
Details	mass density [kg/m3]
303.15 K	1275
313.15 K	1267.4
323.15 K	1260
333.15 K	1252.5

CCCC[n+]1ccn(C)c1.F[P-](F)(F)(F)(F)F + CC(=O)c1ccccc1
x2 = 0
Details	mass density [kg/m3]
293.15 K	1371.2
303.15 K	1362.8
323.15 K	1346
333.15 K	1337.8

CCOS(=O)(=O)[O-].CC[n+]1ccn(C)c1 + CC(=O)c1ccccc1
x2 = 0
Details	mass density [kg/m3]
293.15 K	1238.2
303.15 K	1231.3
323.15 K	1217.7

CC(=O)c1ccccc1 + CC[n+]1ccn(C)c1.F[B-](F)(F)F
mass density [kg/m3]
Details	293.15 K	303.15 K	313.15 K	323.15 K	333.15 K
x1 = 0.0416	1261.6	1249.1	1240.4	1231.6	–
x1 = 0.094	1240.7	–	1219.5	–	–
x1 = 0.195	1211.9	1199.5	1190.7	1182	1170.5
x1 = 0.2999	–	1177.6	1168.9	1160.1	1151.2
x1 = 0.4003	–	1159	1150.2	–	–
x1 = 0.4989	1157.2	–	1136	–	1118.4
x1 = 0.5979	1139.8	1127.3	1118.5	1109.8	1100.9
x1 = 0.7005	1120	1107.6	1098.8	1090.1	1081.2
x1 = 0.8007	1096	1087.3	1078.5	1069.8	1060.9
x1 = 0.8918	1068	1059.2	–	1041.7	–
x1 = 0.9498	1047.7	1039	–	1021.5	–
x1 = 1	1027.9	1019.2	1010.4	1001.7	–

CC(=O)c1ccccc1 + CCCC[n+]1ccn(C)c1.F[P-](F)(F)(F)(F)F
mass density [kg/m3]
Details	293.15 K	303.15 K	313.15 K	323.15 K	333.15 K
x1 = 0.0504	1345.8	1337.1	1328.3	1319.6	1310.7
x1 = 0.0913	1329	1320.3	1311.5	–	–
x1 = 0.1983	1289.8	1281.1	1272.4	1263.6	1254.8
x1 = 0.2999	1256.9	–	1239.5	1230.7	–
x1 = 0.3908	1230.1	1221.4	1212.7	–	1195
x1 = 0.4973	1199.7	1191	–	1173.5	1164.6
x1 = 0.5999	–	1166.2	–	1148.7	1139.8
x1 = 0.697	1150	1141.3	1132.6	–	1114.9
x1 = 0.7999	1119.9	1111.2	1102.4	–	1084.8
x1 = 0.9002	1080.6	1071.9	1063.2	1054.4	–
x1 = 0.95	1055	1046.2	1037.5	–	1019.9
x1 = 1	1027.9	1019.2	1010.4	1001.7	–

CC(=O)c1ccccc1 + CCOS(=O)(=O)[O-].CC[n+]1ccn(C)c1
mass density [kg/m3]
Details	293.15 K	303.15 K	313.15 K	323.15 K	333.15 K
x1 = 0.0505	1227.8	1219.1	1210.3	1201.6	–
x1 = 0.0997	1219	1210.3	1201.6	1192.8	–
x1 = 0.2	1210.1	–	1192.6	1183.9	1175
x1 = 0.3008	1201.6	1192.7	1184.1	–	1166.5
x1 = 0.4002	1188.6	–	1171.1	1162.4	1153.5
x1 = 0.5006	1169.9	1161.2	1152.5	1143.7	1134.8
x1 = 0.5999	1148	1139.3	1130.5	–	1112.9
x1 = 0.6921	1124	1115.3	–	1097.8	1088.9
x1 = 0.7973	–	–	1076.1	1067.3	1058.5
x1 = 0.8999	1062.3	1053.6	–	–	1027.3
x1 = 0.9502	1045.4	–	–	1019.2	1010.3
x1 = 1	1027.9	–	–	–	992.8

From a compilation of properties of binary mixtures (doi:10.1039/c6ra15476j)
